# Results as given in the supplement of paper PMC8728848.
# Some of the results follow.
# Experiments:
# Assay in all cases: glycan array binding signal (z-score within array); higher = stronger binding
# Conditions in all cases: glycan notation: IUPAC condensed, linker removed
# [1] = target: Fuc(a1-3)[Gal(b1-4)]GlcNAc(b1-3)Gal(b1-4)[Fuc(a1-3)]GlcNAc
# In short: (§1)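 Negative Z-scores can be read as non-binding. The Z-score is calculated within each array and then averaged across arrays of one protein sequence at different concentrations or buffers and across linkers. Arrays, 3228 in all, were curated from the Consortium for Functional Glycomics database and kept only where the protein sequence was available.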
# [2] = target: Fuc(a1-3)[Gal(b1-4)]GlcNAc(b1-3)Gal(b1-4)[Fuc(a1-3)]GlcNAc(b1-3)Gal(b1-4)[Fuc(a1-3)]GlcNAc
# In short: as §1
# [3] = target: Fuc(a1-3)[Gal(b1-4)]GlcNAc(b1-3)GalNAc
# In short: as §1
# [4] = target: Fuc(a1-3)[Gal(b1-4)]GlcNAc(b1-6)GalNAc
# In short: as §1
# [5] = target: Fuc(a1-3)[Gal(b1-4)]GlcNAc(b1-6)[Gal(b1-3)GlcNAc(b1-3)]Gal(b1-4)Glc
# In short: as §1
# [6] = target: Fuc(a1-3)[Gal(b1-4)]GlcNAc6S
# In short: as §1
# [7] = target: Fuc(a1-3)[Gal3S(b1-4)]Glc
# In short: as §1
# [8] = target: Fuc(a1-3)[Gal3S(b1-4)]GlcNAc
# In short: as §1
# [9] = target: Fuc(a1-3)[Gal3S(b1-4)]GlcNAc6S
# In short: as §1
# [10] = target: Fuc(a1-3)[GalNAc(b1-4)]GlcNAc
# In short: as §1
# [11] = target: Fuc(a1-3)[GalNAc(b1-4)]GlcNAc6S
# In short: as §1
# [12] = target: Fuc(a1-4)GlcNAc
# In short: as §1
# [13] = target: Fuc(b1-3)GlcNAc
# In short: as §1
# [14] = target: Gal(a1-2)Gal
# In short: as §1
# [15] = target: Gal(a1-3)Gal
# In short: as §1
# [16] = target: Gal(a1-3)Gal(b1-3)GlcNAc
# In short: as §1
# [17] = target: Gal(a1-3)Gal(b1-3)GlcNAc(b1-2)Man
# In short: as §1
# [18] = target: Gal(a1-3)Gal(b1-3)GlcNAc(b1-2)Man(a1-3)[Gal(a1-3)Gal(b1-3)GlcNAc(b1-2)Man(a1-6)]Man(b1-4)GlcNAc(b1-4)GlcNAc
# In short: as §1
# [19] = target: Gal(a1-3)Gal(b1-3)GlcNAc(b1-3)GalNAc
# In short: as §1
# [20] = target: Gal(a1-3)Gal(b1-3)GlcNAc(b1-6)GalNAc
# In short: as §1
# [21] = target: Gal(a1-3)Gal(b1-3)[Fuc(a1-4)]GlcNAc(b1-2)Man(a1-3)[Gal(a1-3)Gal(b1-3)[Fuc(a1-4)]GlcNAc(b1-2)Man(a1-6)]Man(b1-4)GlcNAc(b1-4)GlcNAc
# In short: as §1
# [22] = target: Gal(a1-3)Gal(b1-4)Glc
# In short: as §1
# [23] = target: Gal(a1-3)Gal(b1-4)GlcNAc
# In short: as §1
# [24] = target: Gal(a1-3)Gal(b1-4)GlcNAc(b1-2)Man
# In short: as §1
# [25] = target: Gal(a1-3)Gal(b1-4)GlcNAc(b1-2)Man(a1-3)[Gal(a1-3)Gal(b1-4)GlcNAc(b1-2)Man(a1-6)]Man(b1-4)GlcNAc(b1-4)GlcNAc
# In short: as §1
# [26] = target: Gal(a1-3)Gal(b1-4)GlcNAc(b1-3)GalNAc
# In short: as §1
# [27] = target: Gal(a1-3)Gal(b1-4)GlcNAc(b1-6)GalNAc
# In short: as §1
# [28] = target: Gal(a1-3)Gal(b1-4)[Fuc(a1-3)]GlcNAc
# In short: as §1
# [29] = target: Gal(a1-3)Gal(b1-4)[Fuc(a1-3)]GlcNAc(b1-2)Man(a1-3)[Gal(a1-3)Gal(b1-4)[Fuc(a1-3)]GlcNAc(b1-2)Man(a1-6)]Man(b1-4)GlcNAc(b1-4)GlcNAc
# In short: as §1
# [30] = target: Gal(a1-3)GalNAc
# In short: as §1
# [31] = target: Gal(a1-3)[Gal(a1-4)]Gal(b1-4)GlcNAc
# In short: as §1
# [32] = target: Gal(a1-4)Gal(b1-3)GlcNAc(b1-2)Man(a1-3)[Gal(a1-4)Gal(b1-3)GlcNAc(b1-2)Man(a1-6)]Man(b1-4)GlcNAc(b1-4)GlcNAc
# In short: as §1
# [33] = target: Gal(a1-4)Gal(b1-4)Glc
# In short: as §1
# [34] = target: Gal(a1-4)Gal(b1-4)GlcNAc
# In short: as §1
# [35] = target: Gal(a1-4)Gal(b1-4)GlcNAc(b1-2)Man(a1-3)[Gal(a1-4)Gal(b1-4)GlcNAc(b1-2)Man(a1-6)]Man(b1-4)GlcNAc(b1-4)GlcNAc
# In short: as §1
# [36] = target: Gal(a1-4)Gal(b1-4)GlcNAc(b1-3)Gal(b1-4)Glc
# In short: as §1
# [37] = target: Gal(a1-4)GlcNAc
# In short: as §1
# [38] = target: Gal(a1-6)Glc
# In short: as §1
binder,measurement,setting,value
Clone730PsrP (Streptococcus pneumoniae) (protein) MDHHHHHHHHHHASENLYFQGAMVVGSQTAAATEATAKKVEEDRKKPASDYVASVTNVNLQSYAKRRKRSVDSIEQLLASIKNAAVFSGNTIVNGAPAINASLNIAKSETKVYTGEGVDSVYRVPIYYKLKVTNDGSKLTFTYTVTYVNPKTNDLGNISSMRPGYSIYNSGTSTQTMLTLGSDLGKPSGVKNYITDKNGRQVLSYNTSTMTTQGSGYTWGNGAQMNGFFAKKGYGLTSSWTVPITGTDTSFTFTPYAARTDRIGINYFNGGGKVVESSTT,glycan array binding signal (z-score),[1],0.521
same,glycan array binding signal (z-score),[2],0.45
same,glycan array binding signal (z-score),[3],0.297
same,glycan array binding signal (z-score),[4],-0.191
same,glycan array binding signal (z-score),[5],-0.099
same,glycan array binding signal (z-score),[6],0.668
same,glycan array binding signal (z-score),[7],-0.542
same,glycan array binding signal (z-score),[8],-0.136
same,glycan array binding signal (z-score),[9],-0.414
same,glycan array binding signal (z-score),[10],0.389
same,glycan array binding signal (z-score),[11],0.499
same,glycan array binding signal (z-score),[12],0.463
same,glycan array binding signal (z-score),[13],0.268
same,glycan array binding signal (z-score),[14],-0.461
same,glycan array binding signal (z-score),[15],-0.402
same,glycan array binding signal (z-score),[16],-0.675
same,glycan array binding signal (z-score),[17],-0.457
same,glycan array binding signal (z-score),[18],0.105
same,glycan array binding signal (z-score),[19],-0.088
same,glycan array binding signal (z-score),[20],-0.385
same,glycan array binding signal (z-score),[21],-0.371
same,glycan array binding signal (z-score),[22],-0.471
same,glycan array binding signal (z-score),[23],-0.387
same,glycan array binding signal (z-score),[24],-0.011
same,glycan array binding signal (z-score),[25],-0.431
same,glycan array binding signal (z-score),[26],-0.281
same,glycan array binding signal (z-score),[27],-0.459
same,glycan array binding signal (z-score),[28],-0.455
same,glycan array binding signal (z-score),[29],1.64
same,glycan array binding signal (z-score),[30],0.033
same,glycan array binding signal (z-score),[31],0.222
same,glycan array binding signal (z-score),[32],-0.418
same,glycan array binding signal (z-score),[33],1.27
same,glycan array binding signal (z-score),[34],1.2
same,glycan array binding signal (z-score),[35],0.234
same,glycan array binding signal (z-score),[36],-0.505
same,glycan array binding signal (z-score),[37],-0.223
same,glycan array binding signal (z-score),[38],-0.456
